Source: the RNAGym collection of RNA variant scans (doi:10.7554/elife.90254)
The source gives no read counts; variants with many changes may rest on few reads.

B1: LINE1-mini (parent)
chain: GGCAGAGCUCAACACAGCGUGGCAAAGUGGCUGUGGCUAGACUGCC

Variants of: B1
Assay: self-cleavage, relative activity (ratio to wild type); higher = more cleavage; in vitro, sequencing; the parent is a self-cleaving ribozyme

Variant | self-cleavage
A25C A26G G35A U38A | 0.02
A11G G30U U34C G36C C37U C42A C46A | 0.01
C13U C23U A26U G36A | 0.33
G1A A16C G30U G35C C37G | 0.12
C18A G21A G22C C23G | 0.19
G5U C15U G21A A26C U32C G40A | 0.02
A4C C10A U32A G33C | 0.08
G5C A16G A24G A41G | 0.01
C3A G17C G19U A39G C45G | 0.59
C10G G21U C23G A26U | 0.1
C13U C15U A16U G33U A39C | 0.01
A26C G27U C31A | 0.92
G1A C15A G33A | 0.05
G2A A4U G21C U32C G33A C37A | 0.18
A6C A11U C31G | 0.02
G19C G22A C31A U32A G35A | 0.06
G7C C23U C31A | 0.06
C10A A16C G29U G33A G36U A41G | 0.01
A25U G35U U38G A41C G44C | 0.03
G1U G21U U28A C31G C37U A39U | 0.01
G17A A26C C42A | 0.04
C3A C10A A26C G30C G35A G36U | 0.03
G2A C8U U43A | 0.18
G2C G7U U9G C15U G30A G36A G44U | 0.04

Variant | self-cleavage
C8G C15A G17C G21A G22C A24G | 0.02
G2U G17U G29U C42A | 0
C10A C13U C15A C18G A39U G44U | 0.01
G5U G7C U9G U38G G40C | 0.05
G2A C15A U20G A26G G44A | 0.21
A16U C37G G40U | 0.03
G21A G22A A39C G44U C46U | 0.04
G2A A16G U38G | 0.1
C10A G19U C23U G27U | 0.09
C31U U34C C42U | 0.01
C3G A6G G7A G27C | 0.07
G22A A25C G36C | 0.14
G7C A25C C37U G40C | 0.03
A12G G27C G40C | 0.02
A16G U20C G30A C42U G44C | 0.11
G22A U28C C37A | 0.02
C8A C23G G29A U32G | 0.08
G2U G17A G30A | 0.11
G27U G29C C45G | 0.12
G1A A25G U32G G35U A41U | 0.01
G22A U28A G33U C42A | 0.23
C8G C31A C45A | 0.07
G1U U32A C42G | 0.09
C8G A11C G30C C46G | 0.01

Variant | self-cleavage
C3U C10A U34A C37A | 0.01
G2U A4U U28G G30C | 0.02
C23U G33A U38C | 0.07
G2C C3G C8U A26G C31G | 0.11
G2A A4U G29A G33U A41G | 0.66
G19U G30C U32A | 0.02
U9C C37A U43A C45G | 0.05
U9A A12U G27U G35U A39U A41C | 0.05
G2U A6G C18G | 0.04
G7A A12U C13A G27U U32C C37G | 0.03
C3G G5U C42G | 0.04
C3A C31G U32A | 0.13
A4G U38G A41U | 0.05
A14C C31A U43A | 0.16
C15G U28G C37A | 0.03
A6G U9C G29U | 0.04
G2A A16G C18G | 0.12
C3A A24G G27U U32G | 0.1
G5C G7A U9A G19A U28C | 0.6
C3G C23A U32A U34A C37A A39C | 0.05
A4C G27C G30C | 0.11
A16C C18G A24C U43C | 0.01
A14G C15G U28A G33U | 0.07
G5A G7A U9C | 0.05

Variant | self-cleavage
G2U G17U A25U | 0.07
G27U G44U C45A C46U | 0.03
A6C A41C G44A | 0.03
A24C C31A C37U G40C | 0.02
A4G A26G U28A G44U | 0.09
G2A A12C C13U | 0.03
C3G C8U G29A C37U C45A C46U | 0.02
A24G U28G G35C | 0.05
G2C A6U C18G A24C A39G | 0.01
A12C A14C U28C G30A | 0
A6U U32C C37U | 0.02
C3A G5A C10G G17A | 0.06
A12G G19A G21A C23U G30C U32A | 0.02
C8G C15U C42G | 0.05
C18A G19C C46U | 0.37
G17A A24G A26C G35U | 0.03
G7U A11C C18U G19U | 0.01
G1A C13G G40U C45A | 0.1
C3G U28A U43A | 0.08
C8U U9G C10G U20C G22U U28A U38G | 0
U20C G36C U38C A41U | 0.22
G19U G30U C46A | 1.14
G2C A12U G19C G21U G36U C37A G40A | 0.02
C8U C15U U20A G22C | 1.05

Variant | self-cleavage
A11U G17A G30A U43G | 0
G7C A16U G33U G35A | 0.02
G7U A11U C45U | 0.02
G19A A25G U28C | 1.1
C13A A24C A26U U28C G35C | 0.08
C10A A11G A16U | 0.03
G1C C3G C10A G17U | 0.03
C13A A14G C15U C31G G33A | 0.02
A12G C15A G36A | 0
C13U C23A C37U | 0.05
C18G G22U G27C G44A | 0.23
C3A A25U G40U | 0.08
A24U G27U A41G G44C | 0.01
C8U A14G U32A G33C | 0.2
G2A A11G C23U G29C U38A | 0.03
A12U G19U C31U | 0.14
C15U G17A G19A | 0.63
G27A U43C C46A | 0.06
U9C C13A A16C G44U | 0.2
C8U U9C A25G A26G G35A G36U C46G | 0.02
A14C C23G G30A C42G | 0.05
C3A A6G C8G A14G G17U G19A | 0.02
U9G G33U C45U | 0.09
G33A G36U A39C | 0.02

Variant | self-cleavage
A4G G5U G33C U38A | 0.02
C15U A26U C31U G44A | 0.08
C3U C13U C23U U28C | 0.12
G7A A12G U28C | 1.57
G5C G22C C23A C46G | 0.04
C3U A4C C10U C23U A24G | 0.05
G17A G33C U43C | 0.02
C8G G17U C18A C23G C37A | 0.18
G1A G2C A4U C18U G27A | 0.23
A4U G7C G19U G29U G30A | 0.03
C3A G7C U28G C42U | 0.04
G7C A24U G30C U34G | 0.07
C13G G21A C31G C46U | 0.04
G17U C18G C45A | 0.03
C18A G33C C42U | 0.05
C3A C13A G17C C18A A24U C31A C37U G40C | 0.23
C3G G7C C15A U28C G29A | 0.03
G1A G5C A16G G33C | 0.04
G7U U9A A11U A16C | 0.04
G21U C23A G29C | 0.4
G2C C15A G30A U34C G35A C37A A41G | 0.04
A39C U43G C46U | 0.03
G1U G2C C13U | 0.04
C13U G22C A39U | 0.09

Variant | self-cleavage
A4U A6G U43A | 0.11
C3G A4U G30U G36C G40U G44C | 0.02
C18U U34C A39C | 0.03
C3A A14G G33U C37A C46U | 0.14
G1C U28A G35C | 0.01
G22C C31A G33C A41G U43A | 0.01
G40C C42U C46A | 0.07
C3A G21U A25G G30A | 0.46
C8U G29C U38C A41U | 0.17
G2U A4U G29U | 0.07
C8G A11C C31A G40U | 0
G5U C13U G19C | 0.46
C8U A14U G17A G19A G29A C31A | 0.08
G1C C42A C45A | 0.04
A11C A16G A24C A41C C42A | 0
C10U A24C C31U U32A G33U | 0.04
G2A C3A U9A C18U G35A | 0.18
C3A U9G C23U G29U A39G | 1.02
G1A C8U C31A G33A | 0.38
C18A G27U G33C | 0.02
G5U A12G C15A U28A G36U | 0.02
C13U A41G C42U | 0.01
G1A A16G G17A G29U C37U A41G C46U | 0.01
